Consider 107 compounds from PubChem BioAssay AID488969 (Vanderbilt High Throughput Screening Facility, 2010).

Over roughly 110,000 compounds, “z-score” has its median near -0.1; the highest 2% begin near 2. Some of the results follow. Active and inactive are the calls of the source.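 Rule for the calls: active = z-score in the third read window above 3 or below -3; inactive = the rest.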

The assay addresses Metabotropic glutamate receptor 8 (Rattus norvegicus) (UniProt P70579). The experiment in a line: mGluR8 Gi/Go-coupled signaling modulation – cell-based, rat, thallium flux, HTS, primary screen (AID 488969). Conditions: HEK293 rat mGluR8, GIRK (G protein-gated inwardly rectifying potassium channel) thallium flux, FluoZin2; at 10 µM; stronger effect = higher value; submaximal glutamate (EC20) added with thallium.
UniProt P70579, sequence (P70579 whole entry, looked up): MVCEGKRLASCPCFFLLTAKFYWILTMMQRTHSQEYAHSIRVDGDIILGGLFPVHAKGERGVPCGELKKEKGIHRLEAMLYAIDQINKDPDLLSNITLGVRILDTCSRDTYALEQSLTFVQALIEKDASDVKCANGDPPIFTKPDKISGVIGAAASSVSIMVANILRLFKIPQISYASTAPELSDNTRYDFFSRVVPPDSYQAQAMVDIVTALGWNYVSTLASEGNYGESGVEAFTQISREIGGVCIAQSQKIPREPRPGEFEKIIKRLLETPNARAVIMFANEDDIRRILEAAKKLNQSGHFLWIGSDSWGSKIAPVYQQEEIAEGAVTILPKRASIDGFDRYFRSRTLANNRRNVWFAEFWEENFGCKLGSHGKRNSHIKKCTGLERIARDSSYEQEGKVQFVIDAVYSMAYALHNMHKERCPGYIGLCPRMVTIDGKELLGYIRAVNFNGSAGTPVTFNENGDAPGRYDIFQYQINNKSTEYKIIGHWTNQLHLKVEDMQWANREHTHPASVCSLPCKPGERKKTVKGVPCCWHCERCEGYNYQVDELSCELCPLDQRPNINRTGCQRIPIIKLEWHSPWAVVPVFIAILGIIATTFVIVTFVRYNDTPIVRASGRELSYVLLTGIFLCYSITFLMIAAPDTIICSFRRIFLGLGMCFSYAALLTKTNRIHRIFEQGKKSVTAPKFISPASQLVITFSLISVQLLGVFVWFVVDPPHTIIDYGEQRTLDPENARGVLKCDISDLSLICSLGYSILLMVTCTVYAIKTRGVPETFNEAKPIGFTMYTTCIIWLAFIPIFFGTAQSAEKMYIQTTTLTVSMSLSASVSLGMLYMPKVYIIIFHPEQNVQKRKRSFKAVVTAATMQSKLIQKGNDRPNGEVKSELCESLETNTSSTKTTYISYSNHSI
With `Cc1noc(C)c1C(=O)N1CCN(CCc2ccccc2)CC1`, the z-score is -0.189. Under `COc1cc(C(=S)N2CCOCC2)ccc1OC(=O)c1cc([N+](=O)[O-])cc([N+](=O)[O-])c1` stands -0.0466; under `CCC(=O)NC(=S)Nc1ccc(-c2nc3ccccc3s2)cc1`, -0.031.

For `CSc1nnc2c3ccccc3n(Cc3ccccc3)c2n1`, the z-score is 0.241. In the case of `O=C(CNS(=O)(=O)c1ccc(Br)cc1)N1CCOCC1`, the z-score turned out to be 0.165. Under `CSc1ccccc1NC(=O)COc1ccc(S(=O)(=O)N2CCCC2)cc1` stands -0.177.

With `CCOC(=O)c1c(C)n(C)c2ccc(OCC(O)Cn3c(C)nc4ccccc43)cc12` (configuration not stated), the z-score is -2.32. The same measure for `COc1ccc(CN(C(=O)c2oc3ccccc3c2C)C2CCS(=O)(=O)C2)cc1OC` (configuration not stated): -0.16; for `O=C(O)Cn1cc(C(=S)N2CCOCC2)c2ccccc21`: -0.136.

As for `CSC1CCCCC1(O)CSc1nc2ccccc2o1` (configuration not stated), the z-score was -0.0413. `CC(=O)Nc1ccc(S(=O)(=O)N2CCN=C2C)cc1` had a z-score of 0.0196.

`N#Cc1cc([N+](=O)[O-])ccc1Oc1cccc(/C=N/NC(=O)c2cccc(Cl)c2)c1` displayed a z-score of -0.277.

With `COC(=O)c1ccc(NC(C(=O)OC)C(C)C)c([N+](=O)[O-])c1` (configuration not stated), the z-score was -0.261.

With `CN(Cc1ccccc1)S(=O)(=O)c1ccc(OCC(=O)N2CCOCC2)cc1`, the z-score worked out at 0.0571. `Cc1cccc(/C=N/NC(=O)c2cc(-c3cccnc3)nc3c2c(C)nn3-c2ccccc2)c1` showed a z-score of 0.217. Compound `N#Cc1c2n(c3c(=O)n(Cc4ccccc4Cl)cnc13)CCCC2` registered a z-score of -0.509.

Compound `CC(C)c1ccc(NC(=O)CSc2nc(-c3ccccc3F)nc3nc[nH]c23)cc1` registered a z-score of -0.223. `COc1cccc(C2CC(c3ccccc3Cl)n3nc(N)nc3N2)c1` (configuration not stated) registered a z-score of -1.36. The same measure for `Cc1cc(C(=O)COC(=O)CN(C)S(=O)(=O)c2ccc(Cl)cc2)c(C)n1CC1CCCO1` (configuration not stated): -0.382; for `CC(C)CCNc1nc(N)c([N+](=O)[O-])c(NCC2CCCO2)n1` (configuration not stated): -0.0499. `CC(C)(C)c1ccc(C(=O)NCC(=O)OCC(=O)Nc2ccccc2[N+](=O)[O-])cc1`: the z-score was -0.147. The same measure for `CC(NC(=O)Nn1cnnc1)(C(F)(F)F)C(F)(F)F`: 0.0258; for `Cc1ccc(SC(C)C(=O)Nc2ncn[nH]2)cc1` (configuration not stated): -0.0401. For the compound `CCOC(=O)C1CCN(c2ncnc3c2oc2ccc(Cl)cc23)CC1`, the z-score is -0.48.

For `Cn1cc(CNC(=O)C23CC4CC(CC(C4)C2)C3)cn1`, the z-score was -0.188. As for `Cc1ccc(NCCC(=O)c2cccs2)cc1Cl`, the z-score is 0.494. In the case of `C=CCOc1ccccc1/C=c1\sc2nc(-c3oc4ccccc4c3C)nn2c1=O`, the z-score was -0.459.

In turn, `O=C(COC(=O)Cc1cccs1)Nc1ccc(F)c(F)c1F` gave a z-score of -0.0862. Under `CCCOc1ccc(C(=O)NCc2cccnc2)cc1` stands 0.114; under `C=CCn1c(SCCOc2ccc(OC)cc2)nnc1C(C)NC(=O)c1ccc(OC)cc1` (configuration not stated), 0.609; under `CCOc1ccc(-c2cc(N)n(S(=O)(=O)c3ccc(OC)cc3)n2)cc1`, -0.00856. Under `Cc1ccc(OCCNS(=O)(=O)c2ccc(N3CCCC3=O)cc2)cc1` stands -0.264; under `COc1ccccc1-c1cc(C(F)(F)F)nc(N2CCCC2)n1`, -0.172.

`COc1ccc(C(=O)NNC(=O)CSc2nnc(COc3ccccc3)n2C)cc1` gave a z-score of -0.419. For the compound `COc1ccc(NC(=O)c2ccc3ccccc3n2)cc1S(=O)(=O)Nc1ccccc1Cl`, the z-score is 0.0764. For `COc1ccccc1OCc1ccc(C(=O)NN)cc1`, the z-score was -0.037.

Compound `Cc1ccc(S(=O)(=O)NCCOc2nc(N(C)C)nc(N3CCOCC3)n2)cc1` registered a z-score of 1.62.

For `Cc1ccccc1OCc1nnc(SCC(=O)Nc2c(C)n(C)n(-c3ccccc3)c2=O)n1-c1ccccc1`, the z-score is -0.613. As to `O=C(COC(=O)CCc1c[nH]c2ccccc12)NC1CCS(=O)(=O)C1` (configuration not stated), the z-score was found to be 0.342. Under `O=C(Nc1ccon1)C1CCN(S(=O)(=O)c2cccs2)CC1` stands 0.029; under `CCCCNS(=O)(=O)c1ccc(OC)c(C)c1`, 0.142. For the compound `CSCC[C@H](NC(=O)c1ccc(Cl)c([N+](=O)[O-])c1)c1nc2ccccc2[nH]1`, the z-score was -0.0228. The same measure for `CC1(C)CC(=O)c2cc(C(=O)NCc3ccco3)c(=O)n(-c3ccccc3)c2C1`: -0.132; for `c1ccc(-c2cc(-c3ccncc3)nc3ccc4ccccc4c23)cc1`: 0.335. For `COC(=O)C1=C(C(=O)OC)SC2(S1)C(C(=O)OC)=C(C(=O)OC)SC1=C2c2cc(C)cc(C)c2NC1(C)C`, the z-score was -0.12. Compound `CC(NC(=O)c1ccccc1O)c1ccccc1` (configuration not stated) came in with a z-score of 0.207.

As to `C=CCNC(=S)NCC1COc2ccccc2O1` (configuration not stated), the z-score is -0.0688. The same measure for `CC(=O)NCCC(Cc1ccccc1)c1ccco1` (configuration not stated): -0.0483; for `CCOC(=O)CSc1nnc(NC(=O)c2cccc(S(=O)(=O)N3CCCC3)c2)s1`: 0.542. As to `Cc1nc(Nc2ccc(S(=O)(=O)N3CCCC3)cc2)c2nnn(Cc3ccccc3)c2n1`, the z-score was determined as 0.261. The same measure for `COc1ccccc1NC(=O)c1sc2ncn(Cc3ccc(C)cc3)c(=O)c2c1C`: -0.249. `COC(=O)COc1ccc(S(=O)(=O)Nc2ccc3c(c2)OCO3)cc1` returned a z-score of -0.955. Compound `O=C(NCCN1CCN(c2ccccc2)CC1)C1CCN(S(=O)(=O)c2cccc3nonc23)CC1` displayed a z-score of -0.208. In the case of `CCOC(=O)c1cccc(NC(=O)CNC(=O)C2CCCCC2)c1`, the z-score is 1.68. `Cc1ccc(C2=NNC(c3ccc(Cl)cc3)=Nc3ccccc32)o1` had a z-score of -0.31. The same measure for `Cc1cccc(C2(c3cccc(C)c3)CC2C(=O)Nc2ccc([N+](=O)[O-])cc2O)c1` (configuration not stated): -0.0299; for `Nc1cc2c(cc1[N+](=O)[O-])OCCO2`: -0.0875; for `COP(=O)(OC)c1nc(-c2cccc3ccccc23)oc1NCc1ccccc1`: -0.666. For `COCCN(C(=O)CN1CCCc2ccccc21)c1c(N)n(Cc2ccccc2)c(=O)[nH]c1=O`, the z-score was -0.231. The same measure for `O=C(Cn1c(C(F)(F)F)nc2ccccc21)NCCN1CCCC1`: 0.278. Consider `O=C(c1cc(Cl)c(=O)n(Cc2ccc(Cl)cc2)c1)N1CCOCC1`, for which the z-score was -0.00215.

`Cc1ccc(-c2nnn(CC(=O)N(CC(=O)NC3CCCCC3)c3cnc4ccccc4c3)n2)o1`: the z-score is -0.701. Under `O=C(COc1ccccc1)NCC(=O)N/N=C/c1ccccc1` stands -0.398; under `Cc1cc(C)n(Cc2ccc(NC(=O)c3nn(C)cc3[N+](=O)[O-])cc2)n1`, -0.0262. The same measure for `Cc1nn2cc(-c3ccc(-c4ccccc4)cc3)nc2s1`: 0.815; for `Cc1n[nH]c(=O)nc1N1CCN(c2ccccc2)CC1`: 0.202; for `Cc1ccc(C)c(N2CCN(C(=O)CN(C)S(=O)(=O)c3cnc[nH]3)CC2)c1`: -0.0229. The same measure for `O=C(O)c1cc(NS(=O)(=O)c2ccc(N3CCOCC3)c([N+](=O)[O-])c2)cc(C(=O)O)c1`: -0.0533.

`CC(NC(=O)Cn1cc(C(=O)C2CC2)c2ccccc21)c1ccccc1` (configuration not stated): the z-score turned out to be 0.266. `O=C(c1ccco1)N1CCN(C(=O)c2cc(-c3ccncc3)nc3ccc(Br)cc23)CC1` came in with a z-score of -0.141. The compound `O=C(CSc1ccc(Cl)cc1)N1CCOCC1` came in with a z-score of 0.1. Under `O=S(=O)(c1ccc2c(c1)oc1ccccc12)N1CCOCC1` stands -0.33; under `CCOC(=O)c1nc(N)c(C(=O)OCC)[nH]1`, -0.0439. The same measure for `CCCSc1nnc2nc(C)cc(C)n12`: -0.0915; for `CCCCn1c(SCC(=O)Nc2ccc(OC)cc2)nc2ccc(N3CCOCC3)cc2c1=O`: active: 4.35; for `CCN(CCO)Cc1cn[nH]c1-c1ccc(C)c(C)c1`: 0.132. Under `O=C(Cn1cnc([N+](=O)[O-])n1)N/N=C/c1ccccc1O` stands 0.165; under `C/C(=N\Oc1cccc(F)n1)c1ccc(Cl)cc1Cl`, 0.444.

The compound `CCOC(=O)Nc1sc(C(=O)N(CC)CC)c(C)c1C(=O)OCC` had a z-score of -0.929. Compound `Cn1c(NC(=O)c2ccccc2NC(=O)C(C)(C)C)nc2ccccc21` came in with a z-score of -0.0885. With `Cc1cc(C2(c3cc(C)c(NC(=O)CN4CCOCC4)c(C)c3)CCCCC2)cc(C)c1NC(=O)CN1CCOCC1`, the z-score is -0.355.

As for `Cc1ccc(-c2csc3ncnc(N4CCc5ccccc5C4)c23)cc1`, the z-score is -0.0151. On to `O=C(CN1CCCC1)NCC1(c2ccccc2)CCOCC1`, for which the z-score is 0.204. Under `COC(=O)c1ccc(NC2=CC(=O)CC(C)(C)C2)cc1` stands -0.507; under `CC(C)(C)C(=O)Nc1nc(-c2ccc3c(c2)OCO3)cs1`, 1.07. Under `Cc1cc2c(cc(C(=O)OCC(=O)NCc3ccco3)n2C)s1` stands -0.152.

For `CC(=O)Oc1ccc(N(C(C)=O)S(=O)(=O)c2ccc(C)c([N+](=O)[O-])c2)cc1`, the z-score was -0.139. Under `Cc1cc2c(ncn2Cc2ccccc2)c(NS(C)(=O)=O)c1C` stands -0.0689.

With `O=C(Cn1nc(-c2ccc(Cl)cc2)ccc1=O)N1CCN(c2ccccc2)CC1`, the z-score is -0.575. Under `COc1ccc(NC(=O)COC(=O)C2CCC(C(C)(C)C)CC2)c([N+](=O)[O-])c1` (configuration not stated) stands -0.247.

In turn, `O=C(COc1ccccc1)NNC(=O)c1cc2ccccc2o1` registered a z-score of 0.0131. The same measure for `COc1cc(CNCCN2CCOCC2)ccc1OCc1cccc(Cl)c1`: 0.787; for `Cc1cc(C)n(CC(=O)N/N=C/c2ccccn2)n1`: 0.402; for `CCCCCC1CC(CC(=O)NC(=S)Nc2ccc([N+](=O)[O-])cc2)C(=O)O1` (configuration not stated): 0.0803. Under `c1ccc(CN2CCN(CCCNc3ccc4nnc(-c5ccccc5)n4n3)CC2)cc1` stands -1.07; under `CCOCCCNC(=O)C1CCC(CNS(=O)(=O)c2ccc(Cl)cc2)CC1` (configuration not stated), -0.125.

Regarding `COc1ccccc1NC(=O)C1CC(=O)OC1c1ccccc1` (configuration not stated), the z-score is -0.583.

Regarding `COc1ccccc1-n1c(SCC(=O)Nc2cccc(C)c2)nc2c(c1=O)SCC2`, the z-score was -0.782.

The compound `C/C(=N/NS(=O)(=O)c1ccc(Br)cc1)c1ccc(C)o1` had a z-score of -0.221.

`Cc1ccc(Oc2ccc(-c3nnc(-c4ccccc4)o3)cc2[N+](=O)[O-])cc1C` yielded a z-score of 0.687. On to `CC(=O)c1c(O)cc(=O)n(-c2ccccc2)c1-c1cccc2ccccc12`, for which the z-score is 0.0673. Compound `Fc1c(F)c(F)c(N=Cc2ccc3ncccc3c2)c(F)c1F` showed a z-score of 0.201.

`Cc1sc2ncnc(NCc3ccco3)c2c1C` registered a z-score of -0.47. In turn, `O=Cc1cn(CCC(=O)O)nc1-c1cc2ccccc2o1` gave a z-score of -0.983. The same measure for `Cc1ccc2nc3sc(-c4nnc(-c5ccccc5[N+](=O)[O-])o4)c(N)c3cc2c1`: -0.0604; for `Clc1cccc(-c2nn3c(Cn4cnc5ccccc54)nnc3s2)c1`: -0.175; for `N#C/C(=C/c1ccc(N2CCOCC2)o1)c1ccc(Cl)cc1`: -0.0165.
